The other results are listed elsewhere or left out.
Assays:
Test in all cases: glycan array binding signal (z-score within array); higher = stronger binding
Conditions in all cases: glycan notation: IUPAC condensed, linker removed
[1] = molecular target: Gal(b1-4)GlcNAc(b1-2)[Gal(b1-4)GlcNAc(b1-6)]Man(a1-6)[Gal(b1-4)GlcNAc(b1-2)Man(a1-3)]Man(b1-4)GlcNAc(b1-4)[Fuc(a1-6)]GlcNAc
Method in brief: (§1)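 Glycan array data came from 3228 arrays in the Consortium for Functional Glycomics database, and only arrays with an available protein sequence were kept. Glycan names were put into IUPAC-condensed notation, and columns mapping to the same glycan were averaged. The binding signal is a within-array Z-score, averaged across arrays of one protein sequence run at different concentrations or buffers and across linkers. A negative Z-score can be read as non-binding.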

[2] = molecular target: Gal(b1-4)GlcNAc(b1-2)[Gal(b1-4)GlcNAc(b1-6)]Man(a1-6)[GlcNAc(b1-4)][Gal(b1-4)GlcNAc(b1-2)Man(a1-3)]Man(b1-4)GlcNAc(b1-4)GlcNAc
Method in brief: as §1

[3] = molecular target: Gal(b1-4)GlcNAc(b1-2)[Gal(b1-4)GlcNAc(b1-6)]Man(a1-6)[GlcNAc(b1-4)][Gal(b1-4)GlcNAc(b1-2)[Gal(b1-4)GlcNAc(b1-4)]Man(a1-3)]Man(b1-4)GlcNAc(b1-4)[Fuc(a1-6)]GlcNAc
Method in brief: as §1

[4] = molecular target: Gal(b1-4)GlcNAc(b1-3)Gal(b1-3)GalNAc
Method in brief: as §1

[5] = molecular target: Gal(b1-4)GlcNAc(b1-3)Gal(b1-3)GlcNAc
Method in brief: as §1

[6] = molecular target: Gal(b1-4)GlcNAc(b1-3)Gal(b1-4)Glc
Method in brief: as §1

[7] = molecular target: Gal(b1-4)GlcNAc(b1-3)Gal(b1-4)GlcNAc
Method in brief: as §1

[8] = molecular target: Gal(b1-4)GlcNAc(b1-3)Gal(b1-4)GlcNAc(b1-2)Man(a1-3)[Gal(b1-4)GlcNAc(b1-3)Gal(b1-4)GlcNAc(b1-2)Man(a1-6)]Man(b1-4)GlcNAc(b1-4)GlcNAc
Method in brief: as §1

[9] = molecular target: Gal(b1-4)GlcNAc(b1-3)Gal(b1-4)GlcNAc(b1-2)Man(a1-3)[Gal(b1-4)GlcNAc(b1-3)Gal(b1-4)GlcNAc(b1-2)Man(a1-6)]Man(b1-4)GlcNAc(b1-4)[Fuc(a1-6)]GlcNAc
Method in brief: as §1

[10] = molecular target: Gal(b1-4)GlcNAc(b1-3)Gal(b1-4)GlcNAc(b1-2)[Gal(b1-4)GlcNAc(b1-3)Gal(b1-4)GlcNAc(b1-6)]Man(a1-6)[Gal(b1-4)GlcNAc(b1-3)Gal(b1-4)GlcNAc(b1-2)Man(a1-3)]Man(b1-4)GlcNAc(b1-4)GlcNAc
Method in brief: as §1

[11] = molecular target: Gal(b1-4)GlcNAc(b1-3)Gal(b1-4)GlcNAc(b1-2)[Gal(b1-4)GlcNAc(b1-3)Gal(b1-4)GlcNAc(b1-6)]Man(a1-6)[Gal(b1-4)GlcNAc(b1-3)Gal(b1-4)GlcNAc(b1-2)Man(a1-3)]Man(b1-4)GlcNAc(b1-4)[Fuc(a1-6)]GlcNAc
Method in brief: as §1

[12] = molecular target: Gal(b1-4)GlcNAc(b1-3)Gal(b1-4)GlcNAc(b1-3)Gal(b1-4)GlcNAc
Method in brief: as §1

[13] = molecular target: Gal(b1-4)GlcNAc(b1-3)Gal(b1-4)GlcNAc(b1-3)Gal(b1-4)GlcNAc(b1-2)Man(a1-3)[Gal(b1-4)GlcNAc(b1-3)Gal(b1-4)GlcNAc(b1-3)Gal(b1-4)GlcNAc(b1-2)Man(a1-6)]Man(b1-4)GlcNAc(b1-4)GlcNAc
Method in brief: as §1

[14] = molecular target: Gal(b1-4)GlcNAc(b1-3)Gal(b1-4)GlcNAc(b1-3)Gal(b1-4)GlcNAc(b1-2)Man(a1-3)[Gal(b1-4)GlcNAc(b1-3)Gal(b1-4)GlcNAc(b1-3)Gal(b1-4)GlcNAc(b1-2)Man(a1-6)]Man(b1-4)GlcNAc(b1-4)[Fuc(a1-6)]GlcNAc
Method in brief: as §1

[15] = molecular target: Gal(b1-4)GlcNAc(b1-3)Gal(b1-4)GlcNAc(b1-3)Gal(b1-4)GlcNAc(b1-2)[Gal(b1-4)GlcNAc(b1-3)Gal(b1-4)GlcNAc(b1-3)Gal(b1-4)GlcNAc(b1-6)]Man(a1-6)[Gal(b1-4)GlcNAc(b1-3)Gal(b1-4)GlcNAc(b1-3)Gal(b1-4)GlcNAc(b1-2)Man(a1-3)]Man(b1-4)GlcNAc(b1-4)[Fuc(a1-6)]GlcNAc
Method in brief: as §1

[16] = molecular target: Gal(b1-4)GlcNAc(b1-3)Gal(b1-4)GlcNAc(b1-3)Gal(b1-4)GlcNAc(b1-3)Gal(b1-4)GlcNAc(b1-2)Man(a1-3)[Gal(b1-4)GlcNAc(b1-3)Gal(b1-4)GlcNAc(b1-3)Gal(b1-4)GlcNAc(b1-3)Gal(b1-4)GlcNAc(b1-2)Man(a1-6)]Man(b1-4)GlcNAc(b1-4)GlcNAc
Method in brief: as §1

[17] = molecular target: Gal(b1-4)GlcNAc(b1-3)Gal(b1-4)GlcNAc(b1-3)Gal(b1-4)GlcNAc(b1-3)Gal(b1-4)GlcNAc(b1-2)Man(a1-3)[Gal(b1-4)GlcNAc(b1-3)Gal(b1-4)GlcNAc(b1-3)Gal(b1-4)GlcNAc(b1-3)Gal(b1-4)GlcNAc(b1-2)Man(a1-6)]Man(b1-4)GlcNAc(b1-4)[Fuc(a1-6)]GlcNAc
Method in brief: as §1

[18] = molecular target: Gal(b1-4)GlcNAc(b1-3)Gal(b1-4)GlcNAc(b1-3)Gal(b1-4)GlcNAc(b1-3)Gal(b1-4)GlcNAc(b1-2)[Gal(b1-4)GlcNAc(b1-3)Gal(b1-4)GlcNAc(b1-3)Gal(b1-4)GlcNAc(b1-3)Gal(b1-4)GlcNAc(b1-6)]Man(a1-6)[Gal(b1-4)GlcNAc(b1-3)Gal(b1-4)GlcNAc(b1-3)Gal(b1-4)GlcNAc(b1-3)Gal(b1-4)GlcNAc(b1-2)Man(a1-3)]Man(b1-4)GlcNAc(b1-4)[Fuc(a1-6)]GlcNAc
Method in brief: as §1

[19] = molecular target: Gal(b1-4)GlcNAc(b1-3)Gal(b1-4)GlcNAc(b1-3)Gal(b1-4)GlcNAc(b1-3)Gal(b1-4)GlcNAc(b1-3)Gal(b1-4)GlcNAc(b1-2)Man(a1-3)[Gal(b1-4)GlcNAc(b1-3)Gal(b1-4)GlcNAc(b1-3)Gal(b1-4)GlcNAc(b1-3)Gal(b1-4)GlcNAc(b1-3)Gal(b1-4)GlcNAc(b1-2)Man(a1-6)]Man(b1-4)GlcNAc(b1-4)GlcNAc
Method in brief: as §1

[20] = molecular target: Gal(b1-4)GlcNAc(b1-3)Gal(b1-4)GlcNAc(b1-3)Gal(b1-4)GlcNAc(b1-3)Gal(b1-4)GlcNAc(b1-3)Gal(b1-4)GlcNAc(b1-2)Man(a1-3)[Gal(b1-4)GlcNAc(b1-3)Gal(b1-4)GlcNAc(b1-3)Gal(b1-4)GlcNAc(b1-3)Gal(b1-4)GlcNAc(b1-3)Gal(b1-4)GlcNAc(b1-2)Man(a1-6)]Man(b1-4)GlcNAc(b1-4)[Fuc(a1-6)]GlcNAc
Method in brief: as §1

[21] = molecular target: Gal(b1-4)GlcNAc(b1-3)Gal(b1-4)GlcNAc(b1-3)Gal(b1-4)GlcNAc(b1-3)Gal(b1-4)GlcNAc(b1-3)Gal(b1-4)GlcNAc(b1-2)[Gal(b1-4)GlcNAc(b1-3)Gal(b1-4)GlcNAc(b1-3)Gal(b1-4)GlcNAc(b1-3)Gal(b1-4)GlcNAc(b1-3)Gal(b1-4)GlcNAc(b1-6)]Man(a1-6)[Gal(b1-4)GlcNAc(b1-3)Gal(b1-4)GlcNAc(b1-3)Gal(b1-4)GlcNAc(b1-3)Gal(b1-4)GlcNAc(b1-3)Gal(b1-4)GlcNAc(b1-2)Man(a1-3)]Man(b1-4)GlcNAc(b1-4)[Fuc(a1-6)]GlcNAc
Method in brief: as §1

[22] = molecular target: Gal(b1-4)GlcNAc(b1-3)Gal(b1-4)GlcNAc(b1-3)Gal(b1-4)GlcNAc(b1-3)Gal(b1-4)GlcNAc(b1-3)Gal(b1-4)GlcNAc(b1-3)Gal(b1-4)GlcNAc(b1-2)Man(a1-3)[Gal(b1-4)GlcNAc(b1-3)Gal(b1-4)GlcNAc(b1-3)Gal(b1-4)GlcNAc(b1-3)Gal(b1-4)GlcNAc(b1-3)Gal(b1-4)GlcNAc(b1-3)Gal(b1-4)GlcNAc(b1-2)Man(a1-6)]Man(b1-4)GlcNAc(b1-4)GlcNAc
Method in brief: as §1

[23] = molecular target: Gal(b1-4)GlcNAc(b1-3)Gal(b1-4)GlcNAc(b1-3)GalNAc
Method in brief: as §1

B1: Threefoil (Haloarcula marismortui) (protein)
chain: GSSHHHHHHHHHHSSGLVPRGSHMGDGYYKLVARHSGKALDVENASTSDGANVIQYSYSGGDNQQWRLVDLGDGYYKLVARHSGKALDVENASTSDGANVIQYSYSGGDNQQWRLVDLGDGYYKLVARHSGKALDVENASTSDGANVIQYSYSGGDNQQWRLVDL
[1]
  glycan array binding signal (z-score): 3.39
[2]
  glycan array binding signal (z-score): 0.546
[3]
  glycan array binding signal (z-score): 6.8
[4]
  glycan array binding signal (z-score): -0.036
[5]
  glycan array binding signal (z-score): -0.236
[6]
  glycan array binding signal (z-score): -0.048
[7]
  glycan array binding signal (z-score): -0.16
[8]
  glycan array binding signal (z-score): 1.2
[9]
  glycan array binding signal (z-score): 2.47
[10]
  glycan array binding signal (z-score): 0.631
[11]
  glycan array binding signal (z-score): 6.34
[12]
  glycan array binding signal (z-score): -0.003
[13]
  glycan array binding signal (z-score): 2.86
[14]
  glycan array binding signal (z-score): 6.67
[15]
  glycan array binding signal (z-score): 9.87
[16]
  glycan array binding signal (z-score): 2.81
[17]
  glycan array binding signal (z-score): 3.74
[18]
  glycan array binding signal (z-score): 7.31
[19]
  glycan array binding signal (z-score): 2.57
[20]
  glycan array binding signal (z-score): 2.83
[21]
  glycan array binding signal (z-score): 3.49
[22]
  glycan array binding signal (z-score): 0.376
[23]
  glycan array binding signal (z-score): 0.08

Source: the supplement of paper PMC8728848
